# Measurements: the supplement of paper PMC8728848
# This is one part of the list.
# Columns and labels:
# Assay in all cases: glycan array binding signal (z-score within array); higher = stronger binding
# Details in all cases: glycan notation: IUPAC condensed, linker removed; mutation: E227A
# [1] = biological target: Fuc(a1-2)Gal6S(b1-3)GlcNAc
# Procedure, shortened: (§1)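 Glycan array data came from 3228 arrays in the Consortium for Functional Glycomics database, and only arrays with an available protein sequence were kept. Glycan names were put into IUPAC-condensed notation, and columns mapping to the same glycan were averaged. The binding signal is a within-array Z-score, averaged across arrays of one protein sequence run at different concentrations or buffers and across linkers. A negative Z-score can be read as non-binding.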
# [2] = biological target: Fuc(a1-2)Gal6S(b1-3)GlcNAc6S
# Procedure, shortened: as §1
# Fuc(a1-2)Gal6S(b1-4)Glc = biological target: Fuc(a1-2)Gal6S(b1-4)Glc
# Procedure, shortened: as §1
# [3] = biological target: Fuc(a1-2)Gal6S(b1-4)Glc6S
# Procedure, shortened: as §1
# Fuc(a1-2)[Gal(a1-3)]Gal = biological target: Fuc(a1-2)[Gal(a1-3)]Gal
# Procedure, shortened: as §1
# [4] = biological target: Fuc(a1-2)[Gal(a1-3)]Gal(b1-3)GalNAc
# Procedure, shortened: as §1
# [5] = biological target: Fuc(a1-2)[Gal(a1-3)]Gal(b1-3)GalNAc(b1-3)Gal(a1-4)Gal(b1-4)Glc
# Procedure, shortened: as §1
# [6] = biological target: Fuc(a1-2)[Gal(a1-3)]Gal(b1-3)GlcNAc
# Procedure, shortened: as §1
# [7] = biological target: Fuc(a1-2)[Gal(a1-3)]Gal(b1-3)GlcNAc(b1-2)Man(a1-3)[Fuc(a1-2)[Gal(a1-3)]Gal(b1-3)GlcNAc(b1-2)Man(a1-6)]Man(b1-4)GlcNAc(b1-4)GlcNAc
# Procedure, shortened: as §1
# [8] = biological target: Fuc(a1-2)[Gal(a1-3)]Gal(b1-3)GlcNAc(b1-2)Man(a1-3)[Fuc(a1-2)[Gal(a1-3)]Gal(b1-3)GlcNAc(b1-2)Man(a1-6)]Man(b1-4)GlcNAc(b1-4)[Fuc(a1-6)]GlcNAc
# Procedure, shortened: as §1
# [9] = biological target: Fuc(a1-2)[Gal(a1-3)]Gal(b1-3)GlcNAc(b1-3)GalNAc
# Procedure, shortened: as §1
# [10] = biological target: Fuc(a1-2)[Gal(a1-3)]Gal(b1-3)GlcNAc(b1-6)GalNAc
# Procedure, shortened: as §1
# [11] = biological target: Fuc(a1-2)[Gal(a1-3)]Gal(b1-4)Glc
# Procedure, shortened: as §1
# [12] = biological target: Fuc(a1-2)[Gal(a1-3)]Gal(b1-4)GlcNAc
# Procedure, shortened: as §1
# [13] = biological target: Fuc(a1-2)[Gal(a1-3)]Gal(b1-4)GlcNAc(b1-2)Man
# Procedure, shortened: as §1
# [14] = biological target: Fuc(a1-2)[Gal(a1-3)]Gal(b1-4)GlcNAc(b1-2)Man(a1-3)[Fuc(a1-2)[Gal(a1-3)]Gal(b1-4)GlcNAc(b1-2)Man(a1-6)]Man(b1-4)GlcNAc(b1-4)GlcNAc
# Procedure, shortened: as §1
# [15] = biological target: Fuc(a1-2)[Gal(a1-3)]Gal(b1-4)GlcNAc(b1-2)Man(a1-3)[Fuc(a1-2)[Gal(a1-3)]Gal(b1-4)GlcNAc(b1-2)Man(a1-6)]Man(b1-4)GlcNAc(b1-4)[Fuc(a1-6)]GlcNAc
# Procedure, shortened: as §1
# [16] = biological target: Fuc(a1-2)[Gal(a1-3)]Gal(b1-4)GlcNAc(b1-3)GalNAc
# Procedure, shortened: as §1
# [17] = biological target: Fuc(a1-2)[Gal(a1-3)]Gal(b1-4)GlcNAc(b1-3)[Fuc(a1-2)[Gal(a1-3)]Gal(b1-4)GlcNAc(b1-6)]GalNAc
# Procedure, shortened: as §1
# [18] = biological target: Fuc(a1-2)[Gal(a1-3)]Gal(b1-4)GlcNAc(b1-6)GalNAc
# Procedure, shortened: as §1
# [19] = biological target: Fuc(a1-2)[Gal(a1-3)]Gal(b1-4)[Fuc(a1-3)]Glc
# Procedure, shortened: as §1
# [20] = biological target: Fuc(a1-2)[Gal(a1-3)]Gal(b1-4)[Fuc(a1-3)]GlcNAc
# Procedure, shortened: as §1
# [21] = biological target: Fuc(a1-2)[Gal(a1-3)]Gal(b1-4)[Fuc(a1-3)]GlcNAc(b1-3)GalNAc
# Procedure, shortened: as §1
# [22] = biological target: Fuc(a1-2)[Gal(a1-4)]Gal(b1-4)GlcNAc
# Procedure, shortened: as §1
# [23] = biological target: Fuc(a1-2)[GalNAc(a1-3)]Gal
# Procedure, shortened: as §1
# [24] = biological target: Fuc(a1-2)[GalNAc(a1-3)]Gal(b1-3)GalNAc(a1-3)[Fuc(a1-2)]Gal(b1-4)GlcNAc
# Procedure, shortened: as §1
# [25] = biological target: Fuc(a1-2)[GalNAc(a1-3)]Gal(b1-3)GalNAc(b1-3)Gal(a1-4)Gal(b1-4)Glc
# Procedure, shortened: as §1
# [26] = biological target: Fuc(a1-2)[GalNAc(a1-3)]Gal(b1-3)GlcNAc
# Procedure, shortened: as §1
# [27] = biological target: Fuc(a1-2)[GalNAc(a1-3)]Gal(b1-3)GlcNAc(b1-2)Man(a1-3)[Fuc(a1-2)[GalNAc(a1-3)]Gal(b1-3)GlcNAc(b1-2)Man(a1-6)]Man(b1-4)GlcNAc(b1-4)GlcNAc
# Procedure, shortened: as §1
# [28] = biological target: Fuc(a1-2)[GalNAc(a1-3)]Gal(b1-3)GlcNAc(b1-2)Man(a1-3)[Fuc(a1-2)[GalNAc(a1-3)]Gal(b1-3)GlcNAc(b1-2)Man(a1-6)]Man(b1-4)GlcNAc(b1-4)[Fuc(a1-6)]GlcNAc
# Procedure, shortened: as §1
# [29] = biological target: Fuc(a1-2)[GalNAc(a1-3)]Gal(b1-3)GlcNAc(b1-3)GalNAc
# Procedure, shortened: as §1
# [30] = biological target: Fuc(a1-2)[GalNAc(a1-3)]Gal(b1-3)GlcNAc(b1-6)GalNAc
# Procedure, shortened: as §1
# [31] = biological target: Fuc(a1-2)[GalNAc(a1-3)]Gal(b1-4)Glc
# Procedure, shortened: as §1
# [32] = biological target: Fuc(a1-2)[GalNAc(a1-3)]Gal(b1-4)GlcNAc
# Procedure, shortened: as §1
# [33] = biological target: Fuc(a1-2)[GalNAc(a1-3)]Gal(b1-4)GlcNAc(b1-2)Man
# Procedure, shortened: as §1
# [34] = biological target: Fuc(a1-2)[GalNAc(a1-3)]Gal(b1-4)GlcNAc(b1-2)Man(a1-3)[Fuc(a1-2)[GalNAc(a1-3)]Gal(b1-4)GlcNAc(b1-2)Man(a1-6)]Man(b1-4)GlcNAc(b1-4)GlcNAc
# Procedure, shortened: as §1
# [35] = biological target: Fuc(a1-2)[GalNAc(a1-3)]Gal(b1-4)GlcNAc(b1-2)Man(a1-3)[Fuc(a1-2)[GalNAc(a1-3)]Gal(b1-4)GlcNAc(b1-2)Man(a1-6)]Man(b1-4)GlcNAc(b1-4)[Fuc(a1-6)]GlcNAc
# Procedure, shortened: as §1
# [36] = biological target: Fuc(a1-2)[GalNAc(a1-3)]Gal(b1-4)GlcNAc(b1-3)Gal(b1-4)GlcNAc
# Procedure, shortened: as §1
# [37] = biological target: Fuc(a1-2)[GalNAc(a1-3)]Gal(b1-4)GlcNAc(b1-3)Gal(b1-4)GlcNAc(b1-3)Gal(b1-4)GlcNAc
# Procedure, shortened: as §1
# [38] = biological target: Fuc(a1-2)[GalNAc(a1-3)]Gal(b1-4)GlcNAc(b1-3)GalNAc
# Procedure, shortened: as §1
# [39] = biological target: Fuc(a1-2)[GalNAc(a1-3)]Gal(b1-4)GlcNAc(b1-3)[Fuc(a1-2)[GalNAc(a1-3)]Gal(b1-4)GlcNAc(b1-6)]GalNAc
# Procedure, shortened: as §1
# [40] = biological target: Fuc(a1-2)[GalNAc(a1-3)]Gal(b1-4)GlcNAc(b1-6)GalNAc
# Procedure, shortened: as §1
# [41] = biological target: Fuc(a1-2)[GalNAc(a1-3)]Gal(b1-4)[Fuc(a1-3)]GlcNAc
# Procedure, shortened: as §1
# [42] = biological target: Fuc(a1-2)[GalNAc(a1-3)]Gal(b1-4)[Fuc(a1-3)]GlcNAc(b1-3)GalNAc
# Procedure, shortened: as §1
# [43] = biological target: Fuc(a1-2)[GalNAc(a1-4)]Gal(b1-4)GlcNAc
# Procedure, shortened: as §1
binder,measurement,setting,value
"Epa1-NP-mutant-E227A (Candida glabrata), Q6VBJ0 (protein) MILNPALFLNKCVCIYTTLILLLLTNGGYATSSNDISLASKDPTTFPLGCSPDITTPKKGLSMELYSYDFRKKGSYPCWDAAYLDPNYPRTGYKSHRLLAKVDGVTGNINFYYHATKGCTPQLGHLPASYNYPKPLTMTNFTMLLYGYFRPKVTGFHTFTISADDLLFVNFGAGNAFDCCRRDSSADHFGNYQAYAIWGSKTAKDELTVHLDAGVYYPIRLFYNNRAYDGALSFTFKTESNENTVSDFSEYFFSLDDTEEGCPGLISYDSSCASVKTSKIIGIDYHTETPNENLVPITKTIYHLGIPCTGTTTTPLCGSGFYDPLANKCVTINTSSTSSVTKTTSHTTSKEVSFHSSISSQKTLIPKSIPSPYGPIKSQSIPTEMETSSEISSSEYAFSDVISTPSHSPYTKKHSSLNSSSYTSTVIHSLTSYSISQGIFSTSLSEQNITSKSSTDKFSTATSMSNNITQSSIIISQFSTNNENYTTTSMHTSSDKISTETLNNSISTTTSILFSNSSTILKNNTTIISSDKDTHYHPVNPTIVCSTNKTEIICASITQPSISNSNNHWSSSVLKFNSTTVRSTLPSSAGSNETSINVPFSSSTESNTSTSSTSTSNSKMVRSTLPSSAGSNETSISVPFSSSTESNTSTSSTSTSNSKMVRSTLPSSAGSNETSINVPFSSSTESNTSTSSTSTSNSKTVRSTPFSSAGIIMTSLSQRNNKSASSYASSNSKCYNTADSCRKVHSTPSYLLTSSYTSEGVDYDCSLVSTKLKINDTNCVNNKHTTKSCLKTSVTTTIPTLEIKTARKSSSNTIGLHSYPTSSPNKSISSAPIIGYISSFKTIKTASPSYQTSDLTTITTITSLNNPGSTAVENTHESNDKSRKTSSNDISSKHSVIKETKDAVESSNKSHQTNTLKCSSIIIASSSHNSYESLGGTTLTLTLSKVYSPQNNDTLPFLEISEVNPSRTVLPESSKMMQYLTSTEERNKTARNTIATNIVSISTFHFEGEGNAIRMGYTQLLLMLIGIIVMNIGT",glycan array binding signal (z-score),[1],-0.197
same,glycan array binding signal (z-score),[2],-0.202
same,glycan array binding signal (z-score),Fuc(a1-2)Gal6S(b1-4)Glc,-0.194
same,glycan array binding signal (z-score),[3],-0.214
same,glycan array binding signal (z-score),Fuc(a1-2)[Gal(a1-3)]Gal,-0.19
same,glycan array binding signal (z-score),[4],-0.205
same,glycan array binding signal (z-score),[5],-0.185
same,glycan array binding signal (z-score),[6],-0.201
same,glycan array binding signal (z-score),[7],-0.176
same,glycan array binding signal (z-score),[8],-0.212
same,glycan array binding signal (z-score),[9],-0.204
same,glycan array binding signal (z-score),[10],-0.177
same,glycan array binding signal (z-score),[11],-0.191
same,glycan array binding signal (z-score),[12],-0.206
same,glycan array binding signal (z-score),[13],-0.193
same,glycan array binding signal (z-score),[14],-0.196
same,glycan array binding signal (z-score),[15],-0.189
same,glycan array binding signal (z-score),[16],-0.204
same,glycan array binding signal (z-score),[17],-0.214
same,glycan array binding signal (z-score),[18],-0.203
same,glycan array binding signal (z-score),[19],-0.211
same,glycan array binding signal (z-score),[20],-0.176
same,glycan array binding signal (z-score),[21],-0.168
same,glycan array binding signal (z-score),[22],-0.221
same,glycan array binding signal (z-score),[23],-0.207
same,glycan array binding signal (z-score),[24],-0.225
same,glycan array binding signal (z-score),[25],-0.189
same,glycan array binding signal (z-score),[26],-0.205
same,glycan array binding signal (z-score),[27],-0.137
same,glycan array binding signal (z-score),[28],-0.164
same,glycan array binding signal (z-score),[29],-0.197
same,glycan array binding signal (z-score),[30],-0.223
same,glycan array binding signal (z-score),[31],-0.2
same,glycan array binding signal (z-score),[32],-0.19
same,glycan array binding signal (z-score),[33],-0.238
same,glycan array binding signal (z-score),[34],-0.179
same,glycan array binding signal (z-score),[35],-0.181
same,glycan array binding signal (z-score),[36],-0.211
same,glycan array binding signal (z-score),[37],-0.158
same,glycan array binding signal (z-score),[38],-0.215
same,glycan array binding signal (z-score),[39],-0.177
same,glycan array binding signal (z-score),[40],-0.201
same,glycan array binding signal (z-score),[41],-0.13
same,glycan array binding signal (z-score),[42],-0.212
same,glycan array binding signal (z-score),[43],-0.188
